From patent US7537764

Key:
[1] = target: West Nile virus strain USA99b (strain 385-99), whole virus (West Nile virus strain 385-99 (USA99b)); experiment: cell-based or functional assay
[2] = target: West Nile virus strain USA99b (strain 385-99), whole virus (West Nile virus strain 385-99 (USA99b)); experiment: ELISA on irradiated WNV; IgG1 at 0.039 µg/ml
[3] = target: West Nile virus strain USA99b (strain 385-99), whole virus (West Nile virus strain 385-99 (USA99b)); experiment: ELISA on irradiated WNV; IgG1 at 0.078 µg/ml
[4] = target: West Nile virus strain USA99b (strain 385-99), whole virus (West Nile virus strain 385-99 (USA99b)); experiment: ELISA on irradiated WNV; IgG1 at 0.160 µg/ml
[5] = target: West Nile virus strain USA99b (strain 385-99), whole virus (West Nile virus strain 385-99 (USA99b)); experiment: ELISA on irradiated WNV; IgG1 at 0.310 µg/ml
[6] = target: West Nile virus strain USA99b (strain 385-99), whole virus (West Nile virus strain 385-99 (USA99b)); experiment: ELISA on irradiated WNV; IgG1 at 0.630 µg/ml
[7] = target: West Nile virus strain USA99b (strain 385-99), whole virus (West Nile virus strain 385-99 (USA99b)); experiment: ELISA on irradiated WNV; IgG1 at 1.250 µg/ml
[8] = target: West Nile virus strain USA99b (strain 385-99), whole virus (West Nile virus strain 385-99 (USA99b)); experiment: ELISA on irradiated WNV; IgG1 at 2.500 µg/ml
[9] = target: West Nile virus strain USA99b (strain 385-99), whole virus (West Nile virus strain 385-99 (USA99b)); experiment: ELISA on irradiated WNV; IgG1 at 5.000 µg/ml
[10] = target: West Nile virus strain USA99b (strain 385-99), whole virus (West Nile virus strain 385-99 (USA99b)); experiment: ELISA on irradiated WNV; IgG1 at 10.000 µg/ml
[11] = target: West Nile virus strain USA99b (strain 385-99), whole virus (West Nile virus strain 385-99 (USA99b)); experiment: ELISA on irradiated WNV; IgG1 at 20.000 µg/ml
[12] = target: West Nile virus strain USA99b (strain 385-99), whole virus (West Nile virus strain 385-99 (USA99b)); experiment: ELISA on irradiated WNV; IgG1 at 0.000 µg/ml (no antibody)
[13] = target: West Nile virus strain USA99b (strain 385-99), whole virus (West Nile virus strain 385-99 (USA99b)); experiment: SPR (BIAcore3000), WNV captured via immobilized CR4283, IgG injected, bivalent analyte model, average of duplicates
[14] = target: West Nile virus strain USA99b (strain 385-99), whole virus (West Nile virus strain 385-99 (USA99b)); experiment: phage ELISA on coated whole inactivated WNV

B1: CR4283 (antibody)
heavy: EVQLVQSGAEVKKSGESLKISCKGSGYTFNTYWIGWVRQMPGKGLEWMGIIYPGDSDTIYSPSFQGQVTISADKSISTAYLQWSSLKASDSAMYYCARLTFRRGYSGSDSFLPPGDFDYWGQGTLVTVSSASTKGPSVFPLAPSSKSTSGGTAALGCLVKDYFPEPVTVSWNSGALTSGVHTFPAVLQSSGLYSLSSVVTVPSSSLGTQTYICNVNHKPSNTKVDKRV[skipping human IgG1 Fc]
light: DIQMTQSPSTLSASVGDRVTITCRASQSISSWLAWYQQKPGKAPNLLIYAASSLQSGVPSRFSGSGSGTDFTLTISSLQPDDSATYYCQQYNTYPLTFGTKVEIKRTVAAPSVFIFPPSDEQLKSGTASVVCLLNNFYPREAKVQWKVDNALQSGNSQESVTEQDSKDSTYSLSSTLTLSKADYEKHKVYACEVTHQGLSSPVTKSFNRGEC
potency in the 66% neutralizing antibody titer assay [1]: 23.4 µg/mL
OD 492 nm [2]: 1.02 OD
OD 492 nm [3]: 1.35 OD
OD 492 nm [4]: 1.56 OD
OD 492 nm [5]: 1.54 OD
OD 492 nm [6]: 1.62 OD
OD 492 nm [7]: 1.63 OD
OD 492 nm [8]: 1.62 OD
OD 492 nm [9]: 1.76 OD
OD 492 nm [10]: 1.65 OD
OD 492 nm [11]: 1.68 OD
OD 492 nm [12]: 0.003 OD
Kd [13]: 0.8 nM

B2: SC04-274 (scFv)
scFv: QVQLVQSGAEVKKPGESLKISCKGSGYSFTSYWIGWVRQMPGKGLEWMGIIYPGDSDTRYSPSFQGQVTISADRSISTAYLQWSSLKASDTAMYYCARLRGPYYDFWNGYRETHDAFNVWGQGTTVTVSSGTGGSGGTGSGTGGS[skipping about 100 residues]FGGGTKVEIKR
OD 492 nm [14]: 0.961 OD
